# Source: the supplement of paper PMC8728848
# The other results are listed elsewhere or left out.
# Experiments:
# Assay in all cases: glycan array binding signal (z-score within array); higher = stronger binding
# Conditions in all cases: glycan notation: IUPAC condensed, linker removed; mutation: R343A
# [1] = target: Gal(b1-3)GlcNAc
# Summary of the method: (§1)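 Negative Z-scores can be read as non-binding. The Z-score is calculated within each array and then averaged across arrays of one protein sequence at different concentrations or buffers and across linkers. Arrays, 3228 in all, were curated from the Consortium for Functional Glycomics database and kept only where the protein sequence was available.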
# [2] = target: Gal(b1-3)GlcNAc(b1-2)Man(a1-3)[Gal(b1-3)GlcNAc(b1-2)Man(a1-6)]Man(b1-4)GlcNAc(b1-4)GlcNAc
# Summary of the method: as §1
# [3] = target: Gal(b1-3)GlcNAc(b1-3)Gal(b1-3)GlcNAc
# Summary of the method: as §1
# [4] = target: Gal(b1-3)GlcNAc(b1-3)Gal(b1-4)Glc
# Summary of the method: as §1
# [5] = target: Gal(b1-3)GlcNAc(b1-3)Gal(b1-4)GlcNAc
# Summary of the method: as §1
# [6] = target: Gal(b1-3)[Fuc(a1-4)]GlcNAc
# Summary of the method: as §1
# [7] = target: Gal(b1-3)[Fuc(a1-4)]GlcNAc(b1-3)Gal(b1-3)[Fuc(a1-4)]GlcNAc
# Summary of the method: as §1
# [8] = target: Gal(b1-3)[Fuc(a1-4)]GlcNAc(b1-3)Gal(b1-4)GlcNAc
# Summary of the method: as §1
# [9] = target: Gal(b1-3)[Fuc(a1-4)]GlcNAc(b1-3)Gal(b1-4)[Fuc(a1-3)]GlcNAc
# Summary of the method: as §1
# [10] = target: Gal(b1-3)[GlcNAc(b1-6)]GalNAc
# Summary of the method: as §1
# [11] = target: Gal(b1-3)[Neu5Ac(a2-6)]GalNAc
# Summary of the method: as §1
# [12] = target: Gal(b1-3)[Neu5Ac(a2-6)]GlcNAc(b1-6)Gal(b1-4)Glc
# Summary of the method: as §1
# [13] = target: Gal(b1-3)[Neu5Ac(b2-6)]GalNAc
# Summary of the method: as §1
# [14] = target: Gal(b1-4)GalNAc(a1-3)[Fuc(a1-2)]Gal(b1-4)GlcNAc
# Summary of the method: as §1
# [15] = target: Gal(b1-4)GalNAc(b1-3)[Fuc(a1-2)]Gal(b1-4)GlcNAc
# Summary of the method: as §1
# [16] = target: Gal(b1-4)Glc
# Summary of the method: as §1
# [17] = target: Gal(b1-4)Glc6S
# Summary of the method: as §1
# [18] = target: Gal(b1-4)GlcNAc
# Summary of the method: as §1
# [19] = target: Gal(b1-4)GlcNAc(a1-6)Gal(b1-4)GlcNAc
# Summary of the method: as §1
# [20] = target: Gal(b1-4)GlcNAc(b1-2)Man(a1-3)[Gal(b1-4)GlcNAc(b1-2)Man(a1-6)]Man(b1-4)GlcNAc(b1-4)GlcNAc
# Summary of the method: as §1
# [21] = target: Gal(b1-4)GlcNAc(b1-3)Gal(b1-3)GlcNAc
# Summary of the method: as §1
# [22] = target: Gal(b1-4)GlcNAc(b1-3)Gal(b1-4)Glc
# Summary of the method: as §1
# [23] = target: Gal(b1-4)GlcNAc(b1-3)Gal(b1-4)GlcNAc
# Summary of the method: as §1
# [24] = target: Gal(b1-4)GlcNAc(b1-3)Gal(b1-4)GlcNAc(b1-3)Gal(b1-4)GlcNAc
# Summary of the method: as §1
# [25] = target: Gal(b1-4)GlcNAc(b1-3)Gal(b1-4)[Fuc(a1-3)]GlcNAc(b1-3)Gal(b1-4)[Fuc(a1-3)]GlcNAc
# Summary of the method: as §1
# [26] = target: Gal(b1-4)GlcNAc(b1-3)GalNAc
# Summary of the method: as §1
# [27] = target: Gal(b1-4)GlcNAc(b1-3)[Gal(b1-4)GlcNAc(b1-6)]Gal(b1-4)GlcNAc
# Summary of the method: as §1
# [28] = target: Gal(b1-4)GlcNAc(b1-3)[GlcNAc(b1-6)]Gal(b1-4)GlcNAc
# Summary of the method: as §1
# [29] = target: Gal(b1-4)GlcNAc(b1-6)Gal(b1-4)GlcNAc
# Summary of the method: as §1
# [30] = target: Gal(b1-4)GlcNAc(b1-6)Gal(b1-4)GlcNAc(b1-6)GalNAc
# Summary of the method: as §1
# [31] = target: Gal(b1-4)GlcNAc(b1-6)GalNAc
# Summary of the method: as §1
# [32] = target: Gal(b1-4)GlcNAc(b1-6)[Gal(b1-3)]GalNAc
# Summary of the method: as §1
# [33] = target: Gal3S(b1-3)GalNAc
# Summary of the method: as §1
# [34] = target: Gal3S(b1-3)GlcNAc
# Summary of the method: as §1
# [35] = target: Gal3S(b1-3)[Fuc(a1-4)]GlcNAc
# Summary of the method: as §1
# [36] = target: Gal3S(b1-4)Glc
# Summary of the method: as §1
# [37] = target: Gal3S(b1-4)Glc6S
# Summary of the method: as §1
# [38] = target: Gal3S(b1-4)GlcNAc
# Summary of the method: as §1
binder,measurement,setting,value
Surfactant Protein D (Human); Neck + Carbohydrate Recognition Domain (NCRD) (Homo sapiens) (protein) MLLFLLSALVLLTQPLGYLEAEMKTYSHRTMPSACTLVMCSSVESGLPGRDRDGREGPRGEKGDPGLPGAAGQAGMPGQAGPVGPKGDNGSVGEPGPKGDTGPSGPPGPPGVPGPAGREGALGKQGNIGPQGKPGPKGEAGPKGEVGAPGMQGSAGARGLAGPKGERGVPGERGVPGNTGAAGSAGAMGPQGSPGARGPPGLKGDKGIPGDKGAKGESGLPDVASLRQQVEALQGQVQHLQAAFSQYKKVELFPNGQSVGEKIFKTAQFVKPFTEAQLLCTQAGGQLASPRSAAENAALQQLVVAKNEAAFLSMTDSKTEGKFTYPTGESLVYSNWAPGEPNDDGGSEDCVEIFTNGKWNDAACGEKRLVVCEF,glycan array binding signal (z-score),[1],-0.239
same,glycan array binding signal (z-score),[2],-0.284
same,glycan array binding signal (z-score),[3],-0.27
same,glycan array binding signal (z-score),[4],-0.279
same,glycan array binding signal (z-score),[5],-0.158
same,glycan array binding signal (z-score),[6],-0.199
same,glycan array binding signal (z-score),[7],-0.22
same,glycan array binding signal (z-score),[8],-0.177
same,glycan array binding signal (z-score),[9],-0.08
same,glycan array binding signal (z-score),[10],-0.123
same,glycan array binding signal (z-score),[11],-0.342
same,glycan array binding signal (z-score),[12],-0.335
same,glycan array binding signal (z-score),[13],-0.326
same,glycan array binding signal (z-score),[14],-0.214
same,glycan array binding signal (z-score),[15],-0.294
same,glycan array binding signal (z-score),[16],-0.341
same,glycan array binding signal (z-score),[17],-0.03
same,glycan array binding signal (z-score),[18],0.113
same,glycan array binding signal (z-score),[19],-0.353
same,glycan array binding signal (z-score),[20],-0.302
same,glycan array binding signal (z-score),[21],-0.322
same,glycan array binding signal (z-score),[22],0.051
same,glycan array binding signal (z-score),[23],0.369
same,glycan array binding signal (z-score),[24],-0.229
same,glycan array binding signal (z-score),[25],-0.121
same,glycan array binding signal (z-score),[26],-0.095
same,glycan array binding signal (z-score),[27],-0.254
same,glycan array binding signal (z-score),[28],-0.254
same,glycan array binding signal (z-score),[29],-0.164
same,glycan array binding signal (z-score),[30],-0.275
same,glycan array binding signal (z-score),[31],-0.152
same,glycan array binding signal (z-score),[32],-0.331
same,glycan array binding signal (z-score),[33],0.428
same,glycan array binding signal (z-score),[34],0.05
same,glycan array binding signal (z-score),[35],0.046
same,glycan array binding signal (z-score),[36],-0.322
same,glycan array binding signal (z-score),[37],0.564
same,glycan array binding signal (z-score),[38],0.127
